This is one part of the list.
Test system: PfAP2-HC AP2 domain (GST-tagged)
Assay: gcPBM binding intensity (ln(normalized median fluorescence intensity)); higher = stronger DNA binding
Method in brief: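 Binding of GST-tagged P. falciparum DNA-binding domains, expressed in E. coli and used at about 25 μg on average, was carried out for 1 h in 1× PBS containing 1% milk, 0.2 mg/ml BSA, 0.5% salmon testes DNA and 0.03% Triton X-100. The target was an Agilent 4 × 180k array of primer-extended double-stranded 36-bp intergenic genomic probes plus negative controls, read with Alexa488 anti-GST antibody at 488 nm. Binding intensity is the highest Masliner-normalised natural-log median intensity across replicate spots of either probe orientation.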

Row | Sequence | gcPBM binding intensity (ln)
1 | AAAATAAAATATTTCTGTACTTATAACTATTCTATA [XGTACX_site8007] | 9.6
2 | ATAAAATGATAAATTTGTACACAAAAAAAAAAAAAA [XGTACX_site964] | 9.62
3 | GGGTATACAAATAAACGTACAAACTCATAAAAAAAA [XGTACX_site3191] | 9.79
4 | TCTTTTTAAACTAATAGTACATATATATTAATAAAT [XGTACX_site4217] | 9.41
5 | ATTTACATAAATTGCATATATCGATGTAAATAAATA [CACACA_negctrl_site1150] | 9.5
6 | ATATATATATATATATGTACATATATTTATTTATTG [XGTACX_site6267] | 9.65
7 | CATTTATTTTTGTTCTGTACATAAAGATGAACAAAA [XGTACX_site6797] | 9.29
8 | TTAAAAAAATATAATACACACCAAAAATATGCACAT [CACACA_site5209] | 10.3
9 | TTTTTATGGTAAATAAAAATATCTCCCTCCTTAATT [CACACA_negctrl_site1352] | 9.55
10 | TAATAATTTATAATAGTGCATTTGATTTTAAAAATA | 9.24
11 | CATATAAAAATGTGCACACACACACCCATATATATT [CACACA_site1526] | 10.9
12 | AAAATTAATAAATAAACACACATATATATATATATA [CACACA_site2598] | 9.93
13 | TTGATTACACTGAAGTGTACATATATATATATATAT [XGTACX_site3532] | 9.95
14 | AATATCCACATTAGGAGTACACAGCTAACTGTTTGA [XGTACX_site3357] | 9.51
15 | TTTTATATAAAATCGTGTACATACCATTTCCTATTA [XGTACX_site5159] | 9.67
16 | AAAAAAAAAAGAAACACACACATTTGTATATAATAT [CACACA_site2078] | 10.7
17 | AAATAATAAAAAAAATGTACACGTAAATATTATATT [XGTACX_site8125] | 9.84
18 | AGAGTTCTCATATGCACACAAAAAACTTTCATTTAT [CACACA_site45] | 9.76
19 | TATTTTTTTCTTACATACTAATTTGGTACTCACATA [TGCATGCA_negctrl_site81] | 9.72
20 | AAATAAATCTTATGCACACAAATAATTAATTAAACA [CACACA_site1693] | 9.82
21 | AACCCCGTGGAAATATGTACATATAAATATATAAAT [XGTACX_site2094] | 9.66
22 | TAAATAAGCACATACACACATACATACATACATAAA [CACACA_site4017] | 10.1

Row | Sequence | gcPBM binding intensity (ln)
23 | TTTTTGCCATATTACACACACACATGTAAACCCCCT [CACACA_site1647] | 10.1
24 | GTGAAATATGCAAACACACACGAGAAAAATGTATAT [CACACA_site7488] | 10
25 | CAAAACAAAACGTATGCACACAATTAATATATTAAA [CACACA_site3405] | 9.94
26 | CCATATAAAATATAAAAACACACGTATATATACATA [CACACA_site1511] | 9.78
27 | ACAAAATGTAGAAAATGTACAAAATTAACAAAAGAA [XGTACX_site5019] | 9.99
28 | ATTCAATCTTTTAATACACACAATTTATTTCAAAAC [CACACA_site835] | 9.64
29 | TGTACATATATATAGATATATATAGATATATATATA [CACACA_negctrl_site1678] | 9.72
30 | TATCCTAACTTTAGATGTACACAAATAAAAAAAAAA [XGTACX_site4491] | 9.32
31 | AAAATACAAACAAGTGGTACTGTTTATAAATGGTTG [XGTACX_site1503] | 9.85
32 | TTGTATATATTTATATGTACATATATTACTTTTGCT [XGTACX_site2449] | 9.83
33 | TGTCTTGTAAATTATTGTACTATTTAAAGTATACAA [XGTACX_site7864] | 9.54
34 | TTTTAAAAAGATCATTAAAAAAAAAAAAAGAACAAA [CACACA_negctrl_site528] | 9.31
35 | ATAATATAACAATACGCACACGTATACAAAAAAAAA [CACACA_site5703] | 9.99
36 | AATAATAAAGATCAATGTACATAATAAAAAAAAAAA [XGTACX_site2692] | 9.83
37 | TATCATGGGTGTATTTCACACACGGATAATCATTTA [CACACA_site8211] | 9.83
38 | AATGTTTATTAACATTGTACTTATAATATGTCACAA [XGTACX_site2974] | 9.48
39 | AAACAACATATATTAATATGTACATATATATAGATA [GTGCAC_negctrl_site229] | 9.8
40 | TTTTTTTTTTTTGTAACACACAATAATATAACATTA [CACACA_site3411] | 9.68
41 | TTTTTATTGTTATAGTTATAATATATTATTTGATTA [XGTACX_negctrl_site27] | 9.73
42 | AATAATTGTTAAAGCTGTACAATACTTATATAAGAA [XGTACX_site5729] | 9.71
43 | TTATTAAGTAAATCACATTTAATTTTTTTTTTTTTT [CACACA_negctrl_site1280] | 9.27
44 | CACATATAAATATTAACACACATAATGAGTTATATA [CACACA_site7316] | 9.71

Row | Sequence | gcPBM binding intensity (ln)
45 | TTATACCATATTTATAGTACGTACAAATAAATCAAT [XGTACX_site4975] | 9.59
46 | AAGAAAAAAAAAAAAAGTACATGCAATATGGATCTT [XGTACX_site3106] | 9.75
47 | AATATGACGTAGTGGTGTACACACATGGTACCTTTA [XGTACX_site3147] | 10.1
48 | AAAAGATAATTATGCACACACACACCCCCACCCAAC [CACACA_site2570] | 10.9
49 | TTATAAATATAATTTTGTACATATATATATATATAC [XGTACX_site5064] | 9.54
50 | TTAGAACTATTTTATACATGCAGTTATTTAATACTT [TGCATGCA_site1039] | 9.61
51 | AATGGAAATTTTTCTTGTACACATATATGACATGTT [XGTACX_site1691] | 9.65
52 | TTTTTTTTTACTGCATGTACTTGATGTAAATAAATT [XGTACX_site3045] | 9.65
53 | ATATATTTTCCTTCAAGTACACATATAAATGTGTAT [XGTACX_site6633] | 9.71
54 | ATTAAAATATAAGTCACACATATATATATATATATA [CACACA_site6145] | 9.51
55 | TATTTTTTTTTATTTTTTTTTATTTTGTTTTTTTAT [TGCATGCA_negctrl_site315] | 9.44
56 | AAAAAAATAATCATCACACACGGAGAATGTCCAATA [CACACA_site5305] | 10.1
57 | ACATATATTTTTTTTTGTACATATAAATATATATAT [XGTACX_site6491] | 9.7
58 | AACGTAAAACATATCTATCAAAATAAATCATTAATC [TGCATGCA_negctrl_site68] | 9.96
59 | AATATAATAATATTTTGTACATATCCTATGTATGAG [XGTACX_site8601] | 9.66
60 | ACAACAATTCACTTGATGCACTAACCAAAAAAATAA | 9.59
61 | CACGCACGCAGACACACACACACACGCACATATATA [CACACA_site6303] | 10.6
62 | ACATATAAAATGATGCGTACATATTTGATCATATAC [XGTACX_site153] | 9.72
63 | CTAAATAACTTAAGGTGTACGTTTCCAATAAAAAAA [XGTACX_site1742] | 9.53
64 | GTATATTAATAAACATGTACACAATTTATTTATATT [XGTACX_site1012] | 9.85
65 | TTTTTTTTTTGAAGTGCATGTTACGATGAAAAAAAA [TGCATGCA_site64] | 9.33
66 | TTTTTTTTTAAATGTTGTACATTATATTTGTGTATA [XGTACX_site8354] | 9.69

Row | Sequence | gcPBM binding intensity (ln)
67 | CGTATGTGCGGACATGCATGCAATATACAAGAAAAA [TGCATGCA_site145] | 9.66
68 | TGTAGCCTGGAGAAGAGTACATAGTATCTGGTAGCT [XGTACX_site4943] | 9.43
69 | TATTTTTTTACATATTGTACATAATATAAAACTTAC [XGTACX_site8273] | 9.74
70 | TATATTTGGTTTCATTCATTTTTATAGAAATCTCAA [CACACA_negctrl_site1412] | 9.35
71 | CACACGTATATATATACACACTAAAATACCCAGACA [CACACA_site6142] | 9.91
72 | ATTTTTTCATATTCTACACACGTGAACAAATGTGTC [CACACA_site3007] | 10.1
73 | AATATTTTGTTATTTATTTAATCTAATATTATGATA [GTGCAC_negctrl_site258] | 9.5
74 | ATATAATAGAAGTGTACACACATATTTATGGGTGTA [CACACA_site5686] | 9.91
75 | TTTTTAGTTAATTAAACACACAAAAAAAAAAATAAA [CACACA_site3930] | 9.57
76 | ATAATATTGTGGTATACACACCTTACAAAAAGGTAC [CACACA_site5582] | 9.8
77 | AATATTTTTATATATATACACACTTACATATATATA [CACACA_site3609] | 9.79
78 | TTTTCTAAAAAAAGTTGTACATCTTATTTATATTAT [XGTACX_site295] | 9.63
79 | AAAAAATAAAAAAATAAAAAATAAAAAATAAAAAAT [TGCATGCA_negctrl_site90] | 9.46
80 | TATAAAAATAAATAAATAAATAAATAAATAAATAAA [TGCATGCA_negctrl_site310] | 9.47
81 | ATGTAAGACAAAAAGGGTACATAATGCGTATGTATT [XGTACX_site4666] | 10
82 | AAAAATTACCCATCCATACACACATATTTTTTTTAA [CACACA_site2190] | 9.95
83 | GTATATAATTATATATGTACTAAATAAATATTTTTA [XGTACX_site6062] | 9.6
84 | ATTAAAATTTGTTAAAGTACTTAATAAAAATTTTTC [XGTACX_site1959] | 9.26
85 | TATAAATCTATAAATGCACACAAGGGAAGAAAAACG [CACACA_site2965] | 9.97
86 | TATTATTCCAAGAAAAAAAAAAATAAAAAAAAAAAA [CACACA_negctrl_site1424] | 9.21
87 | CAAACAATTAAACAAACACACATATACAAGTATATA [CACACA_site8639] | 10.2
88 | AAAGAACAAATAAAACATAAAATAATATATATAGAT [CACACA_negctrl_site1764] | 10.1
